Some compounds were tested as several samples or in several runs, with calls that do not always agree.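 Growth was measured after 48 h exposure to one concentration of compound in 96-well plates. Values under 10 count as active.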 Some entries of the source have several records that differ or are many. They are shown here; other results are not. There may be further records. This drug was run again and again over the years, at the concentration stated with the values; each value is one run. Additions like (4×) count equal records among those shown.

This note sets out measurements from PubChem BioAssay (NCI).

One assay has as its system HOP-92 NSCLC. As to the kind of experiment: NCI-60 one-dose screen, 48 h (100 = growth as untreated, 0 = no growth, -100 = all killed).
For a further assay, the system named is NCI-H522 lung. The assay is described as above. The following applies: 0.25 µM.

Turning to `COc1cccc2c1C(=O)c1c(O)c3c(c(O)c1C2=O)C[C@@](O)(C(=O)CO)C[C@@H]3OC1CC(N)C(O)C(C)O1` (stereo not given in full), the growth entry was “inactive: 27.8, 12.5, 32.5, 25.4, 21, 15, 28.7, 17.3, 18.3, 17.8, 31.1, 17.7, 26.7, 23.1, 36.1, 28.4, 34.1, 29.4, 24.3, 13.9, 27.2, 37, 29.9 (2×), 37.6, 50.5, 44.1, 28.1, 34.4, 26.8, 30.4, 33.9, 35.2, 12.9, 33.8, 51.4, 12.4, 16.6, 45.2, 45.3, 40.3% and active: 9.42, 7.58, 5.69, 4.3, -4.18, 0.765, -3.36, 4.16, 0.795, -5.31, 8.54%” in the assay with HOP-92 NSCLC (0.25 µM, runs of 2021); “active: -7.89, -8.7, -11.4, 3.53, -7.17, -2.69, -5.67, -12.5% and inactive: 61.2, 57.2, 42.8, 41.3, 40.1, 37.6, 12.9, 13.1, 56.8, 69.5, 30.7, 52.4, 47.6, 55.7, 13.4, 15.8, 35.7, 35.5, 32.7%” in the assay with HOP-92 NSCLC (0.25 µM, runs of 2022); “active: -32.1, -42.7, -55, -57.8, -60.9, -32.9, -49.1, -39.8, -48.6, -48.4, -53.6, -62.6, -49.2, -44.3%” in the assay with HOP-92 NSCLC (25 µM, runs of 1991); “active: -34.9, -52.7, -62.6, -34.3, -46.5, -70.9, -62.3 (2×), -53.1, -48.2, -51.9, -51.3, -29.9, -63.5, -46.2, -34.1, -62.5, -55.5, -50.8, -42.9, -38.4, -43.2, -44.1 (3×), -72.9, -49.8 (2×), -46.7, -45, -55, -0.803, -50.7, -35.5, -57.1, -44.9, -37.6, -60.3, -60.6, -51.1, -42.5, -49.1, -44.4, -28.7, -32.9 (2×), -49.9, -36.9, -38.7, -41, -54.2, -55.3, -64, -56.1, -66.6, -63.1, -45.2, -48.9, -36.1, -43.9, -28.9, -41.7, -48.1, -71.8, -58.5, -54 (2×), -36, -54.1, -40.5 (2×), -21.1, -43.7, -29.5, -22.1, -53.5, -45.8, -61.9, -59.5, -65.7, -50.5, -47.3, -43.4 (2×), -29.6, -35.2, -48.4, -59.9, -62.8, -61.1, -57, -43.6, -71.2, -59.7, -44.6, -37.5, -46, -62.1, -35, -36.2, -34, -43.5, -42.3%” in the assay with HOP-92 NSCLC (25 µM, runs of 1992); “active: -52.4, -56.6, -3.87, -50.9, -68.3, -46.4, -30, -60.3, -59.2 (2×), -41.5, -45.8, -50.6, -35.8, -55.2, -26.8, -31, -85.1, -35.7, -61.8, -47, -57, -20.4, -47.7, -58.3, -54.2 (2×), -22.9, -35.2, -58.2, -59.3, -71.6, -41.7, -68.2, -54.4, -48.2, -62.1, -53.7, -66.2, -57.5%” with HOP-92 NSCLC (25 µM, runs of 1993); “inactive: 67.8% and active: -25.9, -42.7, -50.7, -39.4, -55.4, -57.4, -47.2, -32.3, -40.8, -43.9, -20.8, -43.6, -37.6, -47.8, -33.3, -36.4, -49.3, -44.2, -19, -24.2, -46.7, -50.4, -32.7, -53.8, -63.5, -22.1, -58.3%” in the assay with HOP-92 NSCLC (25 µM, runs of 1994). Also, the growth result in the assay with HOP-92 NSCLC (25 µM, runs of 1995) was “active: -30.6, -66.4 (2×), -38.9, -37.6, -52.6, -59.6, -24.1, -50.2, -72.4, -38.3, -54.3, -67.9, -76.8, -50.6, -53.2, -63.8, -71.6, -46.6, -52.7, -53.8, -28.3, -81, -49.5, -48.9, -46.9, -65.4, -34.8, -41.5, -56.3, -67.5, -69.1, -68.3, -44.2, -69.3, -34.6%”; in the assay with HOP-92 NSCLC (25 µM, runs of 1996), “active: -53.3, -36.2, -17.5, -35.8 (2×), -36.6, -25.4, -37.5 (2×), -7.05, -45.2 (2×), -46.3, -45.7, -15.7, -39.1, -53.9, -37.1, -52.7, -43.5, -39, -44.6, -33.6, -50, -23.8, -24.8, -16, -27.5, -35.2, -42.2, -31, -38.4, -35.1, -46.4, -47, -32.5, -38.2, -18, -45.3, -33.7, -42.6, -62.6, -40.5, -37.7% and inactive: 73.3%, 13.3%, 18.7%”; in the assay with HOP-92 NSCLC (25 µM, runs of 1997) it was “active: -14.2, -41.1, -42, -30.7, -26.6, -28.3, -36.7, -35.8, -36.6, -22.6, -26.5, -53.3 (2×), -37.9, -57.6, -35.5, -80.7, -59.4, -61.8 (2×), 6.84, -44.4, -48.2, -32.2, -36.3, -34.7, -54.4, -46, -45.2, -33.6, -65, -58.7, -69.2, -62.5, -56.1, -50%”; in the assay on HOP-92 NSCLC (25 µM, runs of 1998) it was “active: -37, -16.9, -27.4, -16.3, -50.2, -74.4, -48.8, -39.2, -48.7, -21.2, -23.2, -42.6, -58.1, -23.5, -52.1, -43.7, -27, -46.1, -42% and inactive: 32.2%”; in the assay on HOP-92 NSCLC (25 µM, runs of 1999), “active: -40.5, -100, -84.8, -64.2, -84.2, -52.7, -61.9, -71.3, -87.3, -66, -62.4, -56.2%”; with HOP-92 NSCLC (25 µM, runs of 2000), “active: -87.3%, -86.1%, -78.7%”. Moreover, the growth entry with NCI-H522 lung (runs of 2006) was “inactive: 20.7%, 26.8%”; in the assay on NCI-H522 lung (runs of 2007), “inactive: 24.8, 17.8, 17.6, 45.9, 17.3, 37.1, 13.5, 23.9, 25.6, 22.8, 20.7, 35.9, 34.8, 10.2, 33.6, 18.4, 18.7, 14.2, 10.5, 19.6, 45, 59.9 (2×), 81.2, 68.2, 59.3, 85.7, 82.2, 41.8% and active: -1.12, -6.9, -2.48, -6, -8.25, -30.5, -13, 2.32, -1.79, -27.4, -1.84, -0.0876%”; in the assay with NCI-H522 lung (runs of 2008) it was “active: -5.55, 7.4, 0.726, 2.54, -24.8, 5.79, -28.5, 7.54, 0.863, 7.04, -19.9, -24.2, 1.75, -43.5, -0.675, -12.8, 3.72, -49.7, 5.1, 2.9, -4.65, -3.48, -10.1, 1.57, 2.36, 6.67 (2×), 0.159, 6.25, -4.13, -10.8, 0.976, 6.55, -1.26, -3.86, -27.7% and inactive: 58.2, 11 (2×), 24.7, 20.8, 11.3, 53.7, 11.2 (2×), 23.6, 33.7, 18, 40.9, 35, 31, 16.7, 21%”.
